# According to paper PMC4336329 (PLoS ONE, 2015):
# The campaign covered roughly 310,000 compounds. About 2,200 (0.71%) showed an effect of 50% or more. Effects have a minus sign here. Some of the results follow.
# Target: human ether-à-go-go-related gene (hERG) potassium channel (human, UniProt Q12809)
# Test: primary screen, population patch clamp on CHO cells stably expressing hERG
# Chain of human ether-à-go-go-related gene (hERG) potassium channel (Q12809 whole entry, looked up): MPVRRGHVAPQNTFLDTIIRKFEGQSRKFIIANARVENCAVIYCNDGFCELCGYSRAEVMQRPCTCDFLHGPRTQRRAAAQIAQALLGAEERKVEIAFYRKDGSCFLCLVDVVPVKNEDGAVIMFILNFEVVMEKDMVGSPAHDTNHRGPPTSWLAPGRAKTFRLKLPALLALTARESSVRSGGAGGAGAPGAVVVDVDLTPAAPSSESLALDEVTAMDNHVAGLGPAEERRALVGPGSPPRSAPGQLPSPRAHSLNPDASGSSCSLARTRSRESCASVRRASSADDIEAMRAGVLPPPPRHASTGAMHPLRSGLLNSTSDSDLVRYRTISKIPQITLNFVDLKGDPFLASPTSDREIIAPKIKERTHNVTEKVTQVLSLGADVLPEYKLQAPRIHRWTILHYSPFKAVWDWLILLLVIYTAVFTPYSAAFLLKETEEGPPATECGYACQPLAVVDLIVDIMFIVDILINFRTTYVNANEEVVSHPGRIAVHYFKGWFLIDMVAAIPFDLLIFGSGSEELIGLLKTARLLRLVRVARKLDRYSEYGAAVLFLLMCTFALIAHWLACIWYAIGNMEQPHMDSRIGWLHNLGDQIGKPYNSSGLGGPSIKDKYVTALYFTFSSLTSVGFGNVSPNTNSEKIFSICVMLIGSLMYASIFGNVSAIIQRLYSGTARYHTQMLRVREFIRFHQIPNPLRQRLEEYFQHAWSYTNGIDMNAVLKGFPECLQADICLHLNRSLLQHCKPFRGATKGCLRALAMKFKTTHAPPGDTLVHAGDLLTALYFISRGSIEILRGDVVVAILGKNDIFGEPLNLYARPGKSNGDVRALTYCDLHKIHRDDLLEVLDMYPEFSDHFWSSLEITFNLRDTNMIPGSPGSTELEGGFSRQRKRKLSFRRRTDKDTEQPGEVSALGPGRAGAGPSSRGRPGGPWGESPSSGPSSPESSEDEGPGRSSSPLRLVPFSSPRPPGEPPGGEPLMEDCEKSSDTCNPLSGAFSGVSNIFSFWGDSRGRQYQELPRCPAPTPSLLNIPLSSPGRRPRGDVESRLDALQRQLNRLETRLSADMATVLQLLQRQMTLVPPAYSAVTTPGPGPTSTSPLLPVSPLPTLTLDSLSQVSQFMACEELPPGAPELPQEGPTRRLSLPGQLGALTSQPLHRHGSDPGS
row,SMILES,"hERG current change (%, negative = inhibition) at 1uM [%]"
1,CCCCOc1ncnc2c1[nH]c1ccccc12,17.1
2,COc1cccc(CNC(=O)C2CCCN(S(=O)(=O)c3cccc4nonc34)C2)c1 (centres unmarked),-5.51
3,O=C(COc1ccc(Cl)cc1)Nc1cccc(-c2ccc3nncn3n2)c1,-36.2
4,O=C(Cc1cccs1)Nc1ccc(-c2nnc(-c3ccccc3)o2)cc1,-5.92
5,O=C(c1cccc(S(=O)(=O)N2CCCC2)c1)N1CCCC(C(F)(F)F)C1 (centres unmarked),2.98
6,Cc1ccc(CNC(C)(C)CO)cc1,2.03
7,CC(NS(=O)(=O)c1ccc(Br)cc1)C(=O)NCc1ccc2c(c1)OCO2 (centres unmarked),-4.47
8,COc1ccc(CCNS(=O)(=O)c2ccc(N3CCCC3=O)cc2)cc1,13.7
9,COc1ccc(S[C@@H](CCN2CC[C@H](C)CCC2=O)c2ccccc2)cc1,7.84
10,CS(=O)(=O)N(CC(=O)Nc1ccc2c(c1)OCCO2)c1ccc2c(c1)OCO2,6.44
11,Cc1ccc(Nc2cc(-c3ccccc3)nc3ncnn23)cc1,4.44
12,O=C(COC(=O)C1CC2C=CC1C2)Nc1cccc(S(=O)(=O)N2CCOCC2)c1 (centres unmarked),-3.17
13,NC(=S)N/N=C/c1ncc(C(F)(F)F)cc1Cl,16.9
14,Cn1c(Cn2c(=O)sc3ccccc32)nnc1SCC(=O)N1CCCc2ccccc21,1.01
15,CC(C)N(Cc1nccn1C)C(=O)CC1C(=O)NCCN1Cc1ccc(F)cc1 (centres unmarked),22.2
16,Cc1cccc(NC(=O)CCC2CCN(C(=O)c3ccc(C)s3)CC2)c1,-0.131
17,Cc1cc([N+](=O)[O-])cc([N+](=O)[O-])c1NCC(C)C,8.35
18,CCOc1ccc(N(C)S(=O)(=O)c2csc(C(N)=O)c2)cc1,7.47
19,Cl.O=C(CCc1ccc(S(=O)(=O)N2CCOCC2)cc1)N1CCN(Cc2ccc3c(c2)OCO3)CC1,-12.4
20,COc1cc(NC(=S)NC(=O)c2ccccc2F)ccc1NC(=O)c1cccs1,7.13
21,Cc1ccc(C)c(N2CCN(C(=O)CCS(=O)(=O)c3ccc4c(c3)oc(=O)n4C)CC2)c1,3.59
22,Cc1ccc(-c2nc(CN3CCCCC3)cc(CN3CCCCC3)c2O)cc1.Cl,-15.5

row,SMILES,"hERG current change (%, negative = inhibition) at 1uM [%]"
1,Cc1nn(C)c(C)c1CN(Cc1nc(CCC(C)C)no1)C(C)C,9.86
2,O=C(Cc1ccccc1)CC1(O)C(=O)Nc2ccccc21 (centres unmarked),9.09
3,Cc1cc(C)c(S(=O)(=O)N2CCOC2CNC(=O)C(=O)NCCN2CCOCC2)c(C)c1 (centres unmarked),8.69
4,Cc1ccc(S(=O)(=O)NCC(=O)N(CC(=O)NCc2ccccc2)CC2CCCO2)cc1 (centres unmarked),2.53
5,O=C(C(c1ccccc1)c1ccccc1)N1CCN(Cc2ccco2)CC1.O=C(O)C(=O)O,5.13
6,CC(=O)NS(=O)(=O)c1ccc(NC(=O)/C=C/c2ccccc2Cl)cc1,10.7
7,O=C(Cn1c(=O)oc2ccccc21)c1ccccc1,3.89
8,COc1ccccc1C(=O)NC(CCSC)C(=O)OC(C)C(N)=O (centres unmarked),6.16
9,O=C(Cc1ccccc1)Nc1c(Cl)ccc2nsnc12,8.42
10,CCCN1Cc2cccc(C(=O)Nc3ccc4c(c3)OCO4)c2C1=O,8.55
11,COC(=O)c1nn(-c2ccccc2)c(Sc2ccc(OC)cc2)c1/C=N/O,7.75
12,O=Nc1ccc(O)c2ncccc12,8.63
13,COc1ccc(S(=O)(=O)N(CC(=O)N2CCOCC2)Cc2ccccc2)cc1,3.47
14,CCOc1ccccc1NC(=O)Cc1c(F)cccc1Cl,2.79
15,CN(C)c1ccc(-c2noc(C3CCN(S(=O)(=O)c4ccc(C(=O)O)cc4)CC3)n2)cc1,10.2
16,CCN(CC)S(=O)(=O)c1cccc(C(=O)N[C@H](C(=O)OCC(N)=O)C(C)C)c1,5
17,O=C(COC(=O)/C=C/c1ccccc1Cl)NCCNC(=O)COC(=O)/C=C/c1ccccc1Cl,14.1
18,COc1cccc(C(=O)OCCN2CCOCC2)c1.Cl,3.73
19,Cn1c(C(=O)O)c(CC(=O)Nc2ccc3c(c2)OCCO3)c2ccccc21,19.2
20,O=C(NCCc1ccccc1)C1CCN(Cc2ccccc2F)CC1.O=C(O)C(=O)O,10.1
21,c1ccc(C2=Nc3c(ccc4ccccc34)C(c3ccncc3)=NN2)cc1,8.24
22,CCC(C(=O)NCCCN1CCCC1=O)n1c2ccccc2c2nc(=O)cc(C)n21 (centres unmarked),13.4
